Measurements from the supplement of paper PMC3334620.
In all, about 33,000 sequences were measured (“E-score (-0.5 to 0.5)”: median about -0.056, highest 2% from about 0.38 on). Some of the results follow.

These sequences were tested against Stb4 (UniProt P50104) (assay: PBM E-score (8-mer binding enrichment) (E-score (-0.5 to 0.5)); higher = stronger / more preferred TF binding; most listed sequences are background and not binding sites). Conditions: protein concentration: 200 nM; construct: GST-DNA-binding domain.
In short: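 For each ungapped eight-base word taken together with its reverse complement, the Universal PBM Analysis Suite assigned an E-score. Binding data came from GST-tagged yeast transcription factors, applied at about 100-200 nM, on universal all-10-mer Agilent arrays made double-stranded by primer extension. Fluorescent anti-GST marked bound protein, and scans were normalised with masliner.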

In order of rising “PBM E-score” value:
1. CCCTGTGA  -0.301
2. ACAATCGT  -0.281
3. CCTGGAGA  -0.28
4. AACGTTCA  -0.267
5. CCCTGAAG  -0.26
6. CCAACAGG  -0.253
7. GCTTACAA  -0.24
8. AGGGCATC  -0.217
9. CAATGGAG  -0.212
10. CTCTCCTC  -0.208
11. ATCAAAAT  -0.203
12. GACATGGA  -0.199
13. GCCAGCCA  -0.197
14. AGCCTCGA  -0.195
15. ATTGCAAG  -0.19
16. CGTTCTAC  -0.181
17. AAAGGGAT  -0.175
18. CACTCGAG  -0.175
19. AGCAGCCA  -0.172
20. TGCACGCA  -0.163
21. CATGTGGC  -0.158
22. CTGTGAAG  -0.156
23. CTTAGTGA  -0.137
24. ACCTGATA  -0.133
25. GGTACCCA  -0.129
26. CGTCCATA  -0.125
27. AGAGCAAG  -0.114
28. AGAAAGCC  -0.113
29. AAAGGGGG  -0.106
30. TTGACAAA  -0.0958
31. GATCGATC  -0.0813
32. CGAACAGC  -0.0775
33. ACACGAGT  -0.0741
34. CCAAGAAA  -0.0741
35. CCCTGGGA  -0.0681
36. CCTCCTCC  -0.0669
37. ATTACCAA  -0.0656
38. AGGCAGAA  -0.0655
39. CTATATAC  -0.0645
40. AAGGCTAT  -0.0614
41. GGCCACCA  -0.0609
42. CAACTACA  -0.0599
43. CCAAGCGG  -0.0587
44. AGATCACA  -0.0575
45. GCAAGTCC  -0.0553
46. GGCGCGCC  -0.048
47. TAATGTAA  -0.0479
48. ACGGACTA  -0.0472
49. ACTACAAT  -0.0319
50. ATAACACG  -0.0189
51. GGTTCATA  -0.0132
52. GTGGCTAA  -0.00858
53. CGGTGGAC  -0.00414
54. AATCAAAC  0.00112
55. CCTGTTAC  0.00149
56. CATGCGTA  0.00555
57. ATGTACCA  0.0249
58. CCCGTTCA  0.0292
59. GGTAGGAA  0.0304
60. GACTTGAA  0.0368
61. CCACTTAC  0.0392
62. AACATGCC  0.0469
63. AGAAACCC  0.075
64. CGATCTAC  0.0757
65. CAAGAAAA  0.0813
66. GCGGTATA  0.0922
67. ATGACTCC  0.0931
68. GATGTGAC  0.101
69. CCGCTACA  0.109
70. AATACTAA  0.113
71. AGTCACCG  0.114
72. GGTACTAA  0.117
73. CCCCCCGG  0.121
74. AGACCATA  0.121
75. GTTGCTAA  0.137
76. AAGGGCCG  0.169
77. AGAGATCC  0.174
78. ACGATCCC  0.192
79. CTAGCCGC  0.21
80. CTCGGGCA  0.325
81. GGAAGTTA  0.332
82. TACCCGCA  0.357
83. ACCCGCGG  0.361
84. CCCGAAAG  0.393
85. CGAGCCGA  0.399
86. CGGAATTA  0.401
